Here are results for 63 molecules from PubChem BioAssay AID1159614 (National Center for Advancing Translational Sciences (NCATS), 2016).

The whole screen tested about 45,000 compounds, of which about 65 (0.1%) were called active. The call rests on the fitted dose curve; in most records, active means well fitted activation curve with a large enough effect; inconclusive means small, poorly fitted or top-dose-only effect; inactive means no such curve, though single readings can be large or run the other way. This is one part of the list.

This assay has as its target Galactocerebrosidase (Homo sapiens) (UniProt P54803). Put plainly: A Novel Cell-Based Assay to Identify Small Molecules for B -Galactocerebrosidase. Further: 0% is about no effect; nearly all actives have a fitted effect of over 65% in size. To be noted: 145M-Twi-hGALC-G270D cells (Twitcher mouse brain line with human GALC G270D), HMU-beta-Gal fluorescence, 48 h; series mostly up to 57.5 µM; activation: at the top concentration. Summed up: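 Mutant human GALC (G270D), stably expressed in a Twitcher mouse brain cell line lacking endogenous GALC, is measured in live-treated cells via 6-hexadecanoylamino-4-methylumbelliferyl-β-galactoside hydrolysis (0.1 mM final, pH 5.2) with fluorescent detection.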
Sequence of UniProt P54803 (P54803 whole entry, looked up): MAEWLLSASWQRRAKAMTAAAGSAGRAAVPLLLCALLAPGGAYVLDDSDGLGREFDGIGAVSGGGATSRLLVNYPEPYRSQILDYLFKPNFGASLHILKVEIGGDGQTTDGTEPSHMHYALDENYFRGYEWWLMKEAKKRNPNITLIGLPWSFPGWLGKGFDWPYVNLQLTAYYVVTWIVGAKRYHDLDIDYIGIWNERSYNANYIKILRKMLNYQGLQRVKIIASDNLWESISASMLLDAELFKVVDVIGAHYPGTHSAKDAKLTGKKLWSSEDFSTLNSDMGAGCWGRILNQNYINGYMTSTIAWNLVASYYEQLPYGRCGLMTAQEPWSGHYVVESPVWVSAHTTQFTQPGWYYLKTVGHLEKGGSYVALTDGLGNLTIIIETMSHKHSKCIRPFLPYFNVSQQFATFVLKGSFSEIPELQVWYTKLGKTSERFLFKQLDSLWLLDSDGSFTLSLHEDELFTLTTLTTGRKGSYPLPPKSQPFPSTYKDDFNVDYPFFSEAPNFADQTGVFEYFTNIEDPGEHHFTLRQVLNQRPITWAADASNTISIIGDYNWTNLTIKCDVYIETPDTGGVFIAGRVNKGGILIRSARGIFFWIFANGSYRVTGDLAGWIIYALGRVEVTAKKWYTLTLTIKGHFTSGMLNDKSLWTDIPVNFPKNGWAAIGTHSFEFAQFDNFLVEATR
Take `Cc1ccc(C2CC(=O)n3nc(-c4ccc(Cl)cc4)nc3S2)cc1` (stereo not drawn): the “activation” value was inactive: -3.41%. Take `COc1ccc(C(=O)CC(=O)c2ccc(C(C)(C)C)cc2)cc1`: the “activation” value is inactive: -14.3%. Turning to `COc1cccc(N2CCN(C(=O)c3cnc4c(-c5ccccc5)c(C)nn4c3C)CC2)c1`, the “activation” value was inactive: -17.1%. Take `COc1ccccc1C(=O)Nc1c(C(=O)Nc2cc(Cl)ccc2C)sc2nc(C)cc(C)c12`: the “activation” value is inactive: -9.87%. For the molecule `COc1cccc(CN2C(=O)c3ccccc3Sc3ccc(C(=O)NCc4ccccc4)cc32)c1`, the “activation” value is inactive: -9.4%. Turning to `O=C(Nc1ccccc1)c1cnc(N2CCCCC2)c2ccccc12`, the “activation” value is inactive: -12.5%. For `COc1ccc(-c2cc(C)no2)cc1S(=O)(=O)N1CCN(c2cccc(C)c2)C(C)C1` (stereo not drawn) the value was inactive: -33.6%; for `Cc1ccccc1NC(=O)NCCc1c[nH]c2ccccc12`, inactive: -14.6%; for `CCOC(=O)c1scc(-c2ccccc2)c1S(=O)(=O)N1CCN(c2ccc(Cl)cc2)CC1`, inactive: -15.1%. Regarding `CCN(CC)c1cc(C)c2cc(NC(=O)c3ccc(OC)c(OC)c3)ccc2n1`, the “activation” value is inactive: -13.6%.

Take `Cc1ccc(NC(=O)c2ccc(NC(=O)N3CCSc4ncccc43)cc2)c(Cl)c1`: the “activation” value was inactive: -13.5%. On to `Cc1nc(SCC(=O)N2CCN(c3ccccc3)CC2)[nH]c(=O)c1C`, for which the “activation” value was inactive: -10.8%.

On to `COc1cccc2cc(C(=O)N3CCN(c4cc(C)ccc4C)CC3)c(=O)oc12`, for which the “activation” value was inactive: -14%.

Turning to `Fc1ccccc1Nc1c2c(nc3ccccc13)CCC2`, the “activation” value was inactive: -10.5%. `CCc1ccccc1NC(=O)CN(C)S(=O)(=O)c1cccc2nsnc12`: the “activation” value was inactive: -30.4%. With `COc1ccc(-c2ccc(NS(=O)(=O)c3ccc(NC(C)=O)cc3)cc2)nn1`, the “activation” value was inactive: -11.5%. Turning to `CCN(CC)c1ccc(NC(=O)c2c(C)nn(-c3ccc(F)cc3)c2-n2cccc2)c(C)c1`, the “activation” value is inactive: -38.8%. As for `COc1ccc(OC)c(NC(=O)c2c(NCc3cccs3)sc3c2CCCCC3)c1`, the “activation” value was inactive: -10.3%. With `O=C(CN1C(=O)C2(SCC(=O)N2c2ccc(F)c(F)c2)c2ccccc21)NCCc1ccccc1` (stereo not drawn), the “activation” value is inactive: -25.8%. For `COc1ccc(NC(=O)c2oc3ccc(S(=O)(=O)N4CCOCC4)cc3c2C)c(OC)c1` the value was inactive: 1.09%; for `COc1ccc(CCNC(=O)c2cnn(-c3ccc(F)cc3)c2C2CCN(C(=O)OC(C)(C)C)CC2)cc1OC`, inactive: -14.6%. Take `COc1ccc(N2CCN(C(=O)c3cc4c(=O)n(Cc5cccnc5)ccc4nc3C)CC2)cc1`: the “activation” value is inactive: -8.48%. As to `CCOc1cc(C(c2c(C)[nH]n(-c3ccccc3)c2=O)c2c(C)[nH]n(-c3ccccc3)c2=O)ccc1O`, the “activation” value is inactive: -4.35%.

As to `COc1ccc(-c2noc(N3CCC(C(=O)Nc4cccc(C)c4C)CC3)n2)cc1`, the “activation” value was inactive: -11.3%. For the molecule `CCc1ccc(NC(=O)CSc2nc3nc(C)cc(C)n3n2)cc1`, the “activation” value was inactive: -7.57%. As for `CCOc1cc(CNC(=O)c2cc(-c3ccccc3)n[nH]2)cc(OCC)c1OCC`, the “activation” value is inactive: -6.57%. To `COc1ccc(CCNC(=O)c2ccc3c(c2)CCN3S(=O)(=O)c2ccccc2)cc1` belongs inactive: -10.8%; to `CCOc1ccc(/C=C/c2nc(C#N)c(N3CCN(CC)CC3)o2)cc1`, inactive: -3.39%. As for `O=C(NCCc1ccc(F)cc1)C(=O)NCC(c1ccco1)S(=O)(=O)c1ccccc1` (stereo not drawn), the “activation” value is inactive: 5.55%. In the case of `CCN(CC)S(=O)(=O)c1ccc(NC(=O)Cn2ncc3c([nH]c4ccccc43)c2=O)cc1`, the “activation” value is inactive: -4.89%.

On to `Cc1[nH]c2ccc(C(=O)N3CCN(c4ccccc4F)CC3)cc2c1C`, for which the “activation” value is inactive: -4.35%. `CC(Oc1ccccc1)C(=O)Nc1ccc(C(=O)OCc2cc(=O)n3nc(C(C)C)sc3n2)cc1` (stereo not drawn): the “activation” value is inactive: -6.64%. For `Cc1ccccc1NC(=O)CSc1c(C(C)C)cnc2c1c(=O)n(C)c(=O)n2C`, the “activation” value is inactive: -2.38%. As to `Cc1cc(F)ccc1NC(=O)c1csc2c1CCC(C)C2` (stereo not drawn), the “activation” value was inactive: -7.5%. For `Cc1cc(C)cc(OCC(=O)Nc2nc(-c3ccc(F)cc3)ns2)c1` the value was inactive: 5.22%; for `CCOc1ccccc1NC(=O)CSc1nc2ccccc2nc1N1CCOCC1`, inactive: -8.06%. For the molecule `COC(=O)c1cc(NS(=O)(=O)c2ccc3c(c2)OCCO3)ccc1Cl`, the “activation” value is inactive: -52.2%.

As to `COc1ncnc(NS(=O)(=O)c2ccc(N)cc2)c1OC`, the “activation” value is inactive: -17.3%. In the case of `CC(=O)OCC(=O)[C@@]1(O)[C@H](C)C[C@H]2[C@@H]3CCC4=CC(=O)C=C[C@]4(C)[C@@]3(F)[C@@H](O)C[C@@]21C`, the “activation” value is inactive: -6.23%. As to `COc1ccc(Cn2c(C(=O)O)c(CNCc3ccc(OC)cc3OC)c3ccc(C)cc32)cc1`, the “activation” value is inactive: -5.81%.

As for `COc1ccc(NC(=O)CSCc2cc(=O)c3cc(C)ccc3[nH]2)cc1`, the “activation” value is inactive: -9.04%. To `Fc1ccc(CNCCCSc2nnnn2-c2ccccc2)cc1` belongs inactive: -9.3%; to `COc1ccc(CCCc2nnc(SCC(=O)Nc3cc(F)ccc3C)o2)cc1`, inactive: -21.5%; to `COc1cc(Cl)c(C)cc1NC(=O)CC1Oc2ccccc2NC1=O` (stereo not drawn), inactive: -9.23%. For the molecule `CCOc1ccc(CNC(=O)c2ccc3c(Cl)c4c(nc3c2)CCCC4)cc1`, the “activation” value is inactive: -2.59%. In the case of `CN(C(=O)CSc1nc2ccc(NC(=O)c3cccc(F)c3)cc2s1)c1ccccc1`, the “activation” value is inactive: -26.5%. Consider `COc1ccc(C(=O)Nc2ccc(-c3nc4ncccc4o3)cc2C)cc1Br`, for which the “activation” value was inactive: -3.54%. To `CCn1c(=O)c2cc(C(=O)Nc3cccc(C(F)(F)F)c3)sc2c2ccccc21` belongs inactive: -0.455%; to `COc1ccc(NC(=O)c2c(NCc3ccc(C)o3)sc3c2CCCCC3)c(OC)c1`, inactive: -12.8%. As to `CCNC(=O)CCCN1C(=O)CCn2nc(-c3cccn3C)cc21`, the “activation” value was inactive: -16.9%. With `CCC(C(=O)O)c1ccc(N2Cc3ccccc3C2=O)cc1` (stereo not drawn), the “activation” value was inactive: -5.99%. To `O=C(Oc1ccccc1)c1ccccc1O` belongs inactive: -13.7%; to `Cc1ccc(CNC(=O)CSCc2ccccc2C)cc1`, inactive: -0.733%; to `CCn1cc(C(=O)NCCc2ccc(Cl)cc2)c(=O)c2cc(S(=O)(=O)N(C)C3CCCCC3)ccc21`, inactive: -8.87%. For `Cc1ccc2nc(NCc3ccccc3)c3nncn3c2c1`, the “activation” value is inactive: -10.1%. For the molecule `CCC(Sc1nc2nccnc2c(=O)n1Cc1ccccc1Cl)C(=O)NC1CCCCC1` (stereo not drawn), the “activation” value is inactive: -4.79%. In the case of `COc1ccc(-n2c(/C=C/c3cccc4ccccc34)nc3ccccc3c2=O)cc1OC`, the “activation” value is inactive: -17.6%. For the molecule `O=S(=O)(c1ccc(C2CCCCC2)cc1)N1CCN(c2cc(Cl)ccc2Cl)CC1`, the “activation” value is inactive: -10.8%. Take `COc1ccc(C(=O)c2ccccc2)c(O)c1`: the “activation” value is inactive: -16.8%. For `CCC(CC)C(=O)Nc1nnc(S(=O)(=O)N(C)c2cc(C)cc(C)c2)s1` the value was inactive: -14%; for `Cc1cccc(N(CC(=O)NCCc2ccccc2)S(=O)(=O)c2ccccc2)c1C`, inactive: -19.9%. For `COc1ccc(CCNC(=O)c2cc3c(=O)n4cccc(C)c4nc3n2C)cc1` the value was inactive: -0.584%; for `Cc1ccc(-c2csc(-c3c(N)c(C(=O)c4ccc5c(c4)OCO5)n4ccccc34)n2)cc1C`, inactive: -9.94%.
